Like-named read-outs stand apart in the source and are kept apart here.
System: HCV replicon
Assay: microbe, parasite or virus in culture
Format: cell-based
Settings: Hepatitis C virus
[1] = 48 h, read-out: Replicon IC50 μM 2-day
[2] = 72 h, read-out: Replicon IC50 μM 3-day

Row | Structure (SMILES) | IC50 [1] [µM] | IC50 [2] [µM]
1 | CCOc1ccc2c(C#N)c(-c3ccc(NC(=O)OC(C)C4CC4)cc3)n(C3CCC3)c2c1 (racemic) [Compound 1147, rac-[4-(3-cyano-1-cyclobutyl-6-ethoxy-1H-indol-2-yl)-phenyl]-carbamic acid 1-cyclopropyl-ethyl ester] | < 0.5 | < 0.5
2 | CCCOC(=O)Nc1ccc(-c2c(C#N)c3ccc(OC)cc3n2CC)cc1F [Compound 877, [4-(3-cyano-1-ethyl-6-methoxy-1H-indol-2-yl)-2-fluorophenyl]-carbamic acid propyl ester] | 0.5 to 2 | –
3 | CCn1c(-c2ccc(NS(=O)(=O)CC)cc2)c(C#N)c2ccc(OC(F)(F)F)cc21 [Compound 881, ethanesulfonic acid [4-(3-cyano-1-ethyl-6-trifluoromethoxyindol-2-yl)phenyl]amide] | < 0.5 | < 0.5
4 | CCn1c(-c2ccc(N3CCCS3(=O)=O)cc2)c(C#N)c2ccc(OC(F)(F)F)cc21 [Compound 903, 2-[4-(1,1-dioxidoisothiazolidin-2-yl)phenyl]-1-ethyl-6-(trifluoromethoxy)indole-3-carbonitrile] | < 0.5 | –
5 | C=CCn1c(-c2ccc(N3CCCC3=O)cc2)c(C#N)c2ccc(OC)cc21 [Compound 938, 1-allyl-6-methoxy-2-[4-(2-oxopyrrolidin-1-yl)-phenyl]-1H-indole-3-carbonitrile] | 0.5 to 2 | –
6 | CCn1c(-c2ccc(N3CCCS3(=O)=O)cc2)c(C#N)c2ccc(OC3CC3)cc21 [Compound 1046, 6-cyclopropoxy-2-[4-(1,1-dioxo-1λ^6-isothiazolidin-2-yl)-phenyl]-1-ethyl-1H-indole-3-carbonitrile] | < 0.5 | < 0.5
7 | CCn1c(-c2ccc(NC(=O)OC)cc2)c(C#N)c2ccc(OC(F)F)cc21 [Compound 1130, [4-(3-cyano-6-difluoromethoxy-1-ethyl-1H-indol-2-yl)-phenyl]-carbamic acid methyl ester] | 0.5 to 2 | –
8 | CCOc1ccc2c(C#N)c(-c3ccc(NC(=O)N4CCOCC4)cc3)n(C3CCC3)c2c1 [Compound 1166, morpholine-4-carboxylic acid [4-(3-cyano-1-cyclobutyl-6-ethoxy-1H-indol-2-yl)-phenyl]-amide] | 0.5 to 2 | –
9 | CCn1c(-c2ccc(NC(=O)C3CC3)cc2)c(C#N)c2ccc(OCCn3ccnc3)cc21 [Compound 1183, cyclopropanecarboxylic acid {4-[3-cyano-1-ethyl-6-(2-imidazol-1-yl-ethoxy)-1H-indol-2-yl]-phenyl}-amide] | < 0.5 | –
10 | CCOc1ccc2c(C#N)c(-c3ccc(N(CC)CC)cc3)n(C3CCC3)c2c1 [Compound 1217, 1-Cyclobutyl-2-(4-diethylamino-phenyl)-6-ethoxy-1H-indole-3-carbonitrile] | 0.5 to 2 | –
11 | CCNc1ccc(-c2c(C#N)c3ccc(OCC)cc3n2C2CCC2)cc1 [Compound 1239, 1-cyclobutyl-6-ethoxy-2-(4-ethylaminophenyl)-1H-indole-3-carbonitrile] | < 0.5 | < 0.5
12 | CCOc1ccc2c(C#N)c(-c3ccc(N(CC)C(=O)OC4CCCC4)cc3)n(C3CCC3)c2c1 [Compound 1251, [4-(3-cyano-1-cyclobutyl-6-ethoxy-1H-indol-2-yl)-phenyl]-ethyl-carbamic acid cyclopentyl ester] | 0.5 to 2 | –
13 | CC(C)OC(=O)Nc1ccc(-c2c(C#N)c3ccc(OCCCn4cncn4)cc3n2C2CCC2)cc1 [Compound 1255, {4-[3-cyano-1-cyclobutyl-6-(3-[1,2,4]triazol-1-yl-propoxy)-1H-indol-2-yl]-phenyl}-carbamic acid isopropyl ester] | < 0.5 | < 0.5
14 | CC(C)OC(=O)Nc1ccc(-c2c(C#N)c3ccc(OCCn4cncn4)cc3n2C2CCC2)cc1 [Compound 1276, {4-[3-cyano-1-cyclobutyl-6-(2-[1,2,4]triazol-1-yl-ethoxy)-1H-indol-2-yl]-phenyl}-carbamic acid isopropyl ester] | – | < 0.5
15 | CC(C)NC(=O)Nc1ccc(-c2c(C#N)c3ccc(OCCCn4cncn4)cc3n2C2CCC2)cc1 [Compound 1314, 1-{4-[3-cyano-1-cyclobutyl-6-(3-[1,2,4]triazol-1-yl-propoxy)-1H-indol-2-yl]-phenyl}-3-isopropyl-urea] | – | < 0.5
16 | CC(OC(=O)Nc1ccc(-c2c(C#N)c3ccc(OCCn4cncn4)cc3n2C2CCC2)cc1)C1CC1 (stereo not drawn) [Compound 1329, {4-[3-cyano-1-cyclobutyl-6-(2-[1,2,4]triazol-1-yl-ethoxy)-1H-indol-2-yl]-phenyl}-carbamic acid 1-cyclopropyl-ethyl ester] | – | < 0.5

Reference: US7868037B2 (PTC Therapeutics, Inc., priority 2004, dated 2011)
